The whole screen tested about 150,000 compounds, of which about 540 (0.36%) showed an effect of 50% or more. This is one part of the list.

For this test, the system named is Plasmodium falciparum. As to the kind of experiment: Primary screen in NF54 nanoGlo assay, in single point, at 2uM, 72h; a lower Z score goes with more inhibition. The conditions noted are these: timepoint 72 hour. It counts as functional, Erythrocyte.
Regarding `CC(C)([C@H](NCc1ccc2c[nH]nc2c1)c1ccc(F)c(F)c1)N1CCCC1`, the “% Inhibition” value is listed as -1% and the Z score stood at 0.15.

For `FC(F)(F)c1ccnc(Nc2ccc(N3CCOCC3)nc2)n1`, the “% Inhibition” value is 4% and the Z score is listed as -0.54.

Turning to `OCCOC1CCN(c2ccnc3cc(C(F)(F)F)ccc23)CC1`, the “% Inhibition” value is reported as -11% and the Z score is 1.99.

Turning to `CN(CCNc1cc([C@H]2CCOC2)ncn1)C(=O)Cc1c[nH]c2ccccc12`, the “% Inhibition” value is recorded as 9% and the Z score is listed as -1.63.

For `Cc1cc(-c2nn(C)c(Cl)c2CN(C)Cc2cccc3cccnc23)no1`, the “% Inhibition” value is recorded as -13% and the Z score is 1.9.

As to `Nc1nc(C2CC(O)C2)cc(N2CCC(O)(c3cccnc3)CC2)n1` (stereo unspecified), the “% Inhibition” value came out at 5% and the Z score is reported as -0.86.

For the compound `Cn1cc(-c2csc(CNc3ccc(N4CCC(CO)CC4)cn3)n2)cn1`, the “% Inhibition” value is -14% and the Z score was found to be 2.55.

For the compound `O=C(NCc1ccc(N2CCNCC2)c(F)c1)c1ccc(-c2noc(C(F)(F)F)n2)cc1`, the “% Inhibition” value was determined as 67% and the Z score is given as -11.53.

As for `CC(C)=CCN1CCC(NCC2(N3CCCCC3)CCOCC2)CC1`, the “% Inhibition” value was 3% and the Z score was -0.59.

For the compound `CCN(CC1CCN(C2CCN(C)CC2)CC1)C(=O)c1ccc(C#CC(C)(C)O)cc1`, the “% Inhibition” value is reported as -4% and the Z score was 0.65.

As to `COc1cccc2ncn(CCNc3ccncc3C)c(=O)c12`, the “% Inhibition” value is -3% and the Z score was 0.53.

Regarding `O=C(CN1CCN(CN2C(=O)N[C@H](c3ccccc3OC(F)(F)F)C2=O)CC1)N1CCCCC1`, the “% Inhibition” value was -13% and the Z score came to 2.25.

For the compound `COCCN(CC(F)F)C(=O)c1csc2ccccc12`, the “% Inhibition” value is listed as -7% and the Z score was determined as 1.21.

For `CCOc1cc(NC2CCN(C(=O)N[C@H]3CC(C)(C)Oc4cc(F)ccc43)CC2)ncn1`, the “% Inhibition” value is -6% and the Z score turned out to be 1.19.

`O=C(C1CC=CC1)N1CCC(O)(c2ccccc2Cl)CC1`: the “% Inhibition” value is reported as -4% and the Z score worked out at 0.66.

For `N#CCC1(O)CCN(C(=O)NC2CCN(c3ccccc3Br)C2)C1` (stereo unspecified), the “% Inhibition” value was -4% and the Z score is 0.77.

Turning to `CN1CCN(CCCN(C)C(=O)c2csc(-c3cc4ccccc4o3)n2)CC1`, the “% Inhibition” value is -2% and the Z score is reported as 0.42.

For `N#Cc1cccc(-c2c[nH]c(CNC(=O)c3ccccc3-c3ncc(-c4ccccc4)o3)n2)c1`, the “% Inhibition” value is -12% and the Z score came out at 2.31.

For `CCN1CCN(c2cccc(NC3CC(C)OC(C)C3)c2)CC1` (stereo unspecified), the “% Inhibition” value was -12% and the Z score came out at 2.48.

In the case of `O[C@@H](CNc1ncnc2sccc12)CN1CCc2ccccc2C1`, the “% Inhibition” value is on record as -10% and the Z score is 1.69.

As to `CC(=O)N1[C@@H]2CC[C@H]1CC(OC1CCN(Cc3ccc(OC(F)(F)F)cc3)CC1)C2` (stereo partly specified), the “% Inhibition” value is recorded as -8% and the Z score is listed as 1.46.

On to `O=C(CN1CCN(c2cc(NC3CC3)ncn2)CC1)N1CCCCCC1`, for which the “% Inhibition” value came out at 2% and the Z score is listed as -0.28.

Regarding `CCOC(C)C(=O)N1CCC2(CC1)CC2C(=O)O` (stereo unspecified), the “% Inhibition” value is reported as -9% and the Z score is reported as 1.35.

Turning to `CCN(CC)CC1CCCCC1NC(C)C(=O)N1CCN(c2ncccn2)CC1` (stereo unspecified), the “% Inhibition” value is reported as -3% and the Z score is given as 0.52.

In the case of `Cc1cc(C(=O)NC(C)C(O)c2ccc(Br)cc2)c2ccccc2n1` (stereo unspecified), the “% Inhibition” value is 0% and the Z score is reported as -0.04.

Regarding `CN(CCNC(=O)c1nc(C2CC2)n2ccccc12)C(=O)OC(C)(C)C`, the “% Inhibition” value was -4% and the Z score is listed as 0.86.

Consider `CCCc1cc(NCC2(N3CCN(C)CC3)CCCCC2)n2nccc2n1`, for which the “% Inhibition” value is given as -3% and the Z score is 0.64.

As to `Fc1ccc(N2CCC(N[C@@H]3COC4(CCNCC4)C3)CC2)cc1F`, the “% Inhibition” value was 23% and the Z score is recorded as -4.05.

With `CC(=O)Nc1ccc(CNC(=O)c2scnc2C(F)(F)F)cc1`, the “% Inhibition” value is -11% and the Z score stood at 2.44.

For the compound `CC(C)(C)c1nnc2ccc(N3CCCn4c(cc5ccccc54)C3)nn12`, the “% Inhibition” value is listed as -6% and the Z score is recorded as 0.9.

On to `Cc1cc(N)n(-c2cc(NC3CCN(Cc4ccc(Cl)cc4)CC3)ncn2)n1`, for which the “% Inhibition” value is recorded as -6% and the Z score amounted to 1.06.

`Fc1ccc2c(CCNc3ncnc4oncc34)c[nH]c2c1`: the “% Inhibition” value is reported as -5% and the Z score worked out at 1.07.

With `O=C(c1ccc2ncccc2c1)N1CCN([C@H]2CCCN(Cc3ccccc3)C2=O)CC1`, the “% Inhibition” value turned out to be 2% and the Z score is given as -0.34.

Consider `NC(=O)c1ccc(-c2nc3c(c(NCCc4c[nH]cn4)n2)CCNC3)cc1`, for which the “% Inhibition” value is given as -3% and the Z score turned out to be 0.66.

As to `O=C(c1cc(Nc2ccc(F)c(Cl)c2)c2ccccc2n1)N1CCCCC1`, the “% Inhibition” value was determined as 1% and the Z score is on record as -0.19.

As for `C[C@@H]1COCCN1c1nc(NC2CC2)nc(N2CCOC[C@H]2C)n1`, the “% Inhibition” value is given as 7% and the Z score is -1.29.

For `C[C@H]1CCCN1C(=O)c1cccc(-c2ccc3ncnc(NCCO)c3c2)c1`, the “% Inhibition” value is recorded as -7% and the Z score is reported as 1.47.

In the case of `CN1CCN(C[C@H]2CN(c3nc(-c4ccsc4)nc4ccccc34)CCO2)CC1`, the “% Inhibition” value is recorded as -2% and the Z score came to 0.38.

As for `CC(C)C1(CNC(=O)c2c[nH]nc2-c2ccsc2)CC1`, the “% Inhibition” value is listed as -1% and the Z score came out at 0.22.

`Cc1cccc(C)c1[C@H](C)NC(=O)Nc1ccn(C(C)C)n1`: the “% Inhibition” value is recorded as -4% and the Z score was found to be 0.68.

On to `Cc1cccc2c(CCC(=O)N[C@H]3CCCN(CC(F)(F)F)C3=O)c[nH]c12`, for which the “% Inhibition” value is -3% and the Z score is reported as 0.45.

In the case of `COC1CCCC12CCCN(CCCN1CCN(c3cccc(Cl)c3)CC1)C2` (stereo unspecified), the “% Inhibition” value is reported as 0% and the Z score was determined as 0.06.

As for `CN(c1ccccc1)c1ccc(C(=O)N[C@H]2CCN(CCN3CCOCC3)C2)cn1`, the “% Inhibition” value was -11% and the Z score was determined as 1.66.

In the case of `Cc1noc(C)c1CO[C@H]1CCN(c2cc(NCC3CC3)ncn2)C1`, the “% Inhibition” value is on record as -3% and the Z score amounted to 0.55.

Take `Nc1nc2c(c(NCCc3csc(-c4cnccn4)n3)n1)CCNC2`: the “% Inhibition” value is -4% and the Z score is 0.59.

Take `Nc1ccc(-c2cc(OC(F)(F)F)ccc2O)cn1`: the “% Inhibition” value turned out to be 36% and the Z score is listed as -6.32.

For the compound `CC1(c2ccccc2)CCN(c2ncccc2S(C)(=O)=O)CC1`, the “% Inhibition” value is listed as -3% and the Z score was found to be 0.51.

Consider `Nc1ccc2c(N3CCC[C@H](CN4CCOCC4)C3)ncnc2n1`, for which the “% Inhibition” value is given as 5% and the Z score is recorded as -0.82.

Consider `COCCCn1ccc(Nc2nc3ccccc3o2)n1`, for which the “% Inhibition” value is listed as 1% and the Z score is -0.27.

Take `O=C(NC1CCCCCC1C(=O)O)c1csc(C2CC2)n1` (stereo unspecified): the “% Inhibition” value is on record as -11% and the Z score is on record as 2.17.

`O=C(NCCN1CC[C@@H](O)C1)c1ccccc1-c1ccncc1`: the “% Inhibition” value is on record as -3% and the Z score amounted to 0.6.

`Cc1nc(NCCNc2cnccn2)c2cnn(C)c2n1`: the “% Inhibition” value is listed as -5% and the Z score came out at 0.71.

Consider `OC1(c2cccc(C(F)(F)F)c2)CCN(C[C@H]2CCCNC2)CC1`, for which the “% Inhibition” value came to 1% and the Z score is given as -0.2.

As a reminder, the % Inhibition is the drop in the measured response relative to a control, in per cent.

The record behind these values is ChEMBL document CHEMBL5308541, “MAIP: An Open-Source Tool to Enrich High-Throughput Screening Output and Identify Novel, Druglike Molecules with Antimalarial Activity” (ACS Med Chem Lett, 2023).
